Data as given in paper PMC6919601, “Identification of Plasmodium dipeptidyl aminopeptidase allosteric inhibitors by high throughput screening” (PLoS ONE, 2019).
The whole screen tested about 110,000 compounds, of which about 230 (0.21%) showed an effect of 50% or more. The list shows a part of the results.

target: DPAP1 (Plasmodium falciparum, UniProt Q8IIJ9); assay: primary screen, percent inhibition; read by cleavage of a fluorogenic dipeptide substrate; higher = more effect of the substance; parameters: species or system P. falciparum D10 trophozoite lysates; single well
Sequence (Q8IIJ9 whole entry, looked up): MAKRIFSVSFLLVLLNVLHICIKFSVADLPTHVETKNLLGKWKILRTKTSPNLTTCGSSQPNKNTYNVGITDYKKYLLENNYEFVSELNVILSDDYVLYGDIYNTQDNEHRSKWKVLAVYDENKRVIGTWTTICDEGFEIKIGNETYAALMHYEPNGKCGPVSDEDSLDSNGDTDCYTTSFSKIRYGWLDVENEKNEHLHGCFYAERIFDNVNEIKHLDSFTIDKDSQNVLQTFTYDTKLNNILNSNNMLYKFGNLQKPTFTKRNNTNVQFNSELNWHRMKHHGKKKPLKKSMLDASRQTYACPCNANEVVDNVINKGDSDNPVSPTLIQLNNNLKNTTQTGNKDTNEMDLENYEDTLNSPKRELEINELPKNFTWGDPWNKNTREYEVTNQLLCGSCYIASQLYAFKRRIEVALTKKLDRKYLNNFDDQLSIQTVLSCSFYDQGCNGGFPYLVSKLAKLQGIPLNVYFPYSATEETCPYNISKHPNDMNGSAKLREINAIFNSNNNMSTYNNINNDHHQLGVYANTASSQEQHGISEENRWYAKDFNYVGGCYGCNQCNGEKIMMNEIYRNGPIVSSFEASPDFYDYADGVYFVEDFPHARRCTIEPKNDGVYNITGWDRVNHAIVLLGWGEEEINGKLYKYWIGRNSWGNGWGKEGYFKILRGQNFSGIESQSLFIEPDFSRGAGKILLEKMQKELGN
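Note: 30 min substrate incubation versus DMSO and 10 µM JCP410 controls.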

Compared with `Cc1cccc(-c2noc(CNC(=O)C(C)(C)C)n2)c1`, `Cc1cc(C)n(C(C)CC(=O)NCc2ccccc2Cl)n1` (centres unmarked) is lower in “% Inhibition @ 10 uM” value: 2.14% for the first, -3.98% for the second.

Compared with `CCN(CC)CCN(C)Cc1ccc(C)cc1`, `Cc1ccc(COC(=O)N[C@@H](CC(C)C)C(=O)NCC#N)cc1` is lower in “% Inhibition @ 10 uM” value: -4.28% for the first, -4.93% for the second.

Going from `CCN(CC)S(=O)(=O)c1ccc(NC(=O)COc2ccc(Cl)c(C)c2)cc1` to `COc1ccc(NC(=O)COc2ccccc2C)cc1`, the “% Inhibition @ 10 uM” value rises from -0.132% to 3.5%.

Going from `O=C(NCCCCc1ccccc1)c1ccc(Cl)cc1` to `O=C(NC1CCN(Cc2ccccc2)CC1)c1ccccc1Cl`, the “% Inhibition @ 10 uM” value falls from 3.53% to -0.292%.

Going from `COc1cc(CN2CCN(Cc3cccc(C)c3)CC2)cc(OC)c1` to `COc1cc(CN2CCN(c3ccccc3F)CC2)cc(OC)c1`, the “% Inhibition @ 10 uM” value rises from -6.57% to 2.46%.

Compared with `COc1cc(OC)c(OC)cc1/C=C1/SC(Nc2ccccc2)=NC1=O`, `COc1ccc(-c2nnc3sc(NC(=O)COc4ccccc4F)nn23)cc1OC` is lower in “% Inhibition @ 10 uM” value: 9.94% for the first, 3.36% for the second.

First: Cc1nc2cc(C(=O)NCc3cccnc3)ccc2n1-c1ccc(Br)cc1
Second: Cc1ccc2nc3c(O)n(CC(=O)NCc4cccnc4)ncc-3c2c1
The “% Inhibition @ 10 uM” value of the first is higher: 4.35% for the first, -4.59% for the second.

Compared with `O=C(O)CSc1nnc(Nc2ccccc2)n1-c1ccccc1`, `Cc1cc(C)nc(/N=C(\NCc2ccccc2)NC(=O)Nc2ccccc2)n1` is higher in “% Inhibition @ 10 uM” value: -3.98% for the first, -2.32% for the second.

First: CCOC(=O)c1cnc2cc(-c3ccc(OC)cc3)nn2c1-c1ccccc1
Second: CCOC(=O)c1cnc2c(-c3ccc(Cl)cc3)c(C)nn2c1N
The “% Inhibition @ 10 uM” value of the first is higher: 2.96% for the first, -1.37% for the second.

First: C=CCc1ccc(OCCOc2ccc(/C=C3/C(=N)N4OC(C)=CC4=NC3=O)cc2Cl)c(OC)c1
Second: COc1cccc2c1ncc1c(=O)n3cccc(O)c3nc12
The “% Inhibition @ 10 uM” value of the first is lower: -3.23% for the first, -1.85% for the second.

Going from `COc1ccc(Cl)cc1S(=O)(=O)N1CCN(c2cccc(Cl)c2)CC1` to `Cc1ccc2c(Cl)c(C(=O)N3CCN(c4ccc(Cl)cc4)CC3)sc2c1`, the “% Inhibition @ 10 uM” value falls from 4.25% to -6.7%.

First: CCOc1ccccc1-n1nnc(-c2nc(-c3ccc(C)cc3)no2)c1N
Second: Cc1ccccc1-c1nnn(Cc2ccc(-c3nn[nH]n3)cc2)n1
The “% Inhibition @ 10 uM” value of the first is lower: 1.13% for the first, 3.66% for the second.

Compared with `Cc1ccc(/C=N/OC(=O)c2nn(C)cc2Cl)cc1`, `Cc1ccc(C(=O)n2nc(-c3cccnc3)nc2N)cc1` is higher in “% Inhibition @ 10 uM” value: -0.995% for the first, 2.31% for the second.

First: COc1ccc(-c2nc3cc(N)ccc3o2)cc1Br
Second: COc1ccc(C(=O)Nc2cccc(C(C)=O)c2)cc1Br
The “% Inhibition @ 10 uM” value of the first is lower: -3.82% for the first, 2.01% for the second.

Going from `O=S1(=O)C(/C=N/CCc2c[nH]c3ccccc23)=C(O)c2sccc2N1Cc1cccc(F)c1` to `O=C(NCc1cccc(F)c1)c1ccc2c(c1)sc1nc(-c3ccccc3)cn12`, the “% Inhibition @ 10 uM” value falls from -5.38% to -5.74%.

Going from `CCc1nc2ccccc2c(NC(=O)CN2CCN(Cc3ccccc3)CC2)c1C` to `CN1CCc2c1nc1ccccc1c2NC(=O)CN1CCCCC1`, the “% Inhibition @ 10 uM” value falls from -2.91% to -4.21%.

First: CC(=O)c1cc2c(cc1NC(=O)COc1ccc(C)cc1C)OCO2
Second: CC(C)c1nn2c(=O)cc(CSc3nnc(NC(=O)c4ccc5c(c4)OCO5)s3)nc2s1
The “% Inhibition @ 10 uM” value of the first is lower: -2.32% for the first, 0.747% for the second.

Compared with `Cc1ccnc(NC(=O)Cc2ccc(Br)cc2)c1`, `Cc1ccccc1N(CC(=O)Nc1cccc(Br)c1)S(C)(=O)=O` is lower in “% Inhibition @ 10 uM” value: 3.29% for the first, -6.77% for the second.

Compared with `N#CCNC(=O)[C@H](CC1CCCCC1)NC(=O)c1ccccc1`, `O=C(CNS(=O)(=O)c1ccccc1)N1CCCCC1` is higher in “% Inhibition @ 10 uM” value: -0.214% for the first, 0.0504% for the second.

Compared with `CC(=O)c1ccc(NC(=O)c2ccc(-c3ccccc3)cc2)cc1`, `O=C(Nc1ccccc1F)c1cccc2ccccc12` is higher in “% Inhibition @ 10 uM” value: -3.41% for the first, 2.13% for the second.

First: Cc1ccc(C(=O)Nc2cccc(C(=O)O)c2)o1
Second: Cc1sc(NC(=O)c2cccc3ccccc23)c(C(N)=O)c1C
The “% Inhibition @ 10 uM” value of the first is lower: 0.132% for the first, 4.81% for the second.

Going from `Cc1cc(C)n(CCc2nc3c4ccccc4nc(NCCC(C)C)n3n2)n1` to `CCOCCCNC(=O)c1cc(C)nc2c1c(C)nn2-c1ccccc1`, the “% Inhibition @ 10 uM” value rises from -2.42% to 5.32%.

Compared with `COc1ccc(C2C3=C(O)CCCC3=Nc3nc(SCC(C)C)nn32)c(OC)c1` (centres unmarked), `COc1ccc(C2NC(C(=O)O)CS2)c(OC)c1` (centres unmarked) is higher in “% Inhibition @ 10 uM” value: -0.704% for the first, 19.3% for the second.

Compared with `CCCCNC(=O)c1cc2nc(-c3ccc(OCC)cc3)cc(C)n2n1`, `COc1ccc(CCNC(=O)C(C)n2sc3ccccc3c2=O)c(OC)c1` (centres unmarked) is higher in “% Inhibition @ 10 uM” value: -7.15% for the first, 0.371% for the second.

First: Cc1nc(N2C(=O)C(O)=C(C(=O)c3ccc(Cl)cc3)C2c2ccco2)sc1C (centres unmarked)
Second: COc1ccc(C(=O)C2=C(O)C(=O)N(CCN3CCOCC3)C2c2cccs2)c(C)c1 (centres unmarked)
The “% Inhibition @ 10 uM” value of the first is lower: -7.17% for the first, -1.61% for the second.

Compared with `CCN(CC)c1ccc(NC(=O)c2ccc(S(=O)(=O)N3CCCCC3C)cc2)cc1` (centres unmarked), `COc1ccc(S(=O)(=O)NC(Cc2ccccc2)C(=O)O)cc1` (centres unmarked) is lower in “% Inhibition @ 10 uM” value: 3.24% for the first, -7.23% for the second.

First: COc1ccc2c(c1)C1CC(C)(O2)N(C)C(=O)C1S(=O)(=O)c1ccc(C)c(C)c1 (centres unmarked)
Second: CCCN1C(=O)C(O)(CC(=O)c2ccc(OC)cc2)c2cc(Br)ccc21 (centres unmarked)
The “% Inhibition @ 10 uM” value of the first is higher: 2.57% for the first, 1.57% for the second.

Compared with `CCOC(=O)c1c(C)c(-c2ccccc2)n(CC(=O)NCCCN(C)Cc2ccccc2)c1C`, `C=CCNC(=O)CN(Cc1ccc(C)cc1)S(=O)(=O)c1ccccc1` is lower in “% Inhibition @ 10 uM” value: 1.72% for the first, -6.81% for the second.

Compared with `CS(=O)(=O)Oc1cc2oc(=O)c3c(c2cc1Cl)CCCC3`, `CS(=O)(=O)N(CC(=O)NCc1ccc(Cl)cc1Cl)c1cccc(F)c1` is lower in “% Inhibition @ 10 uM” value: -3.41% for the first, -4.16% for the second.

First: O=C(O)c1ccc(-n2cnnn2)cc1
Second: O=C(CN1CCCC1)c1ccc(Cl)cc1
The “% Inhibition @ 10 uM” value of the first is lower: -6.06% for the first, 3.05% for the second.

First: CCS(=O)(=O)N1CC=C(c2c(C)n(CC(=O)N3CCCC3)c3ccccc23)CC1
Second: CCCN1CCN(C(=O)c2ccc(-n3ccc4ccccc43)s2)CC1
The “% Inhibition @ 10 uM” value of the first is higher: 3.96% for the first, -4.71% for the second.

Going from `CC(C)COC(C(=O)OC(C)CN(C)C)(c1ccccc1)c1ccccc1` (centres unmarked) to `Cn1ccnc1CC(O)(c1ccccc1)c1ccccc1`, the “% Inhibition @ 10 uM” value rises from -1.42% to 6.32%.

Going from `COc1ccccc1N1CCN(C2CC(=O)N(C)C2=O)CC1` (centres unmarked) to `CC1CCC(N2CCN(c3ccccc3F)CC2)CC1` (centres unmarked), the “% Inhibition @ 10 uM” value falls from 0.98% to -3.17%.

First: COCCNC(=O)Cn1cc(C=C2C(=O)N(C)C(=O)N(C)C2=O)c2ccccc21
Second: COc1ccccc1C(=O)N/C(=C\c1cn(S(=O)(=O)N(C)C)c2ccccc12)C(=O)NC(C)C
The “% Inhibition @ 10 uM” value of the first is higher: -1.26% for the first, -3.52% for the second.

Compared with `CCOc1ccc2sc(/C=N/CCc3ccccn3)c(O)c2c1`, `CCC(C)NCc1c(C(=O)O)n(Cc2ccccc2F)c2cc(OC)ccc12` (centres unmarked) is lower in “% Inhibition @ 10 uM” value: 4.54% for the first, 0.896% for the second.

Going from `O=c1sc2ccccc2n1Cc1cccc(Cl)c1` to `O=c1cccc2n1C[C@H]1C[C@@H]2CN(CCCc2ccccc2)C1`, the “% Inhibition @ 10 uM” value falls from 2.46% to -1.85%.

First: O=S(=O)(c1ccccc1)c1cnc2cc3c(cc2c1N1CCOCC1)OCCO3
Second: O=S(=O)(NCC(c1cccnc1)N1CCOCC1)c1cc(F)ccc1F (centres unmarked)
The “% Inhibition @ 10 uM” value of the first is lower: -6.24% for the first, -3.51% for the second.

Going from `CCOC(=O)N1CCC(Nc2nc3ccc(Cl)cc3n3cnnc23)CC1` to `Cc1cc(C)c2nc(N3CCCC(C(=O)N4CCN(c5ccccn5)CC4)C3)sc2c1` (centres unmarked), the “% Inhibition @ 10 uM” value rises from -0.735% to 0.137%.

First: O=C(CC(c1ccc(F)cc1)N1Cc2ccccc2C1=O)Nc1nccs1 (centres unmarked)
Second: CS(=O)(=O)CCC(C(=O)NC1CCN(Cc2ccccc2)CC1)N1Cc2ccccc2C1=O (centres unmarked)
The “% Inhibition @ 10 uM” value of the first is lower: -4.97% for the first, 5.32% for the second.

Going from `O=C(O)CN(CC(=O)O)C1CCCCC1N(CC(=O)O)CC(=O)O` (centres unmarked) to `CCOC(=O)c1c(NC(=O)C23CC4CC(CC(C4)C2)C3)sc2c1CCCC2`, the “% Inhibition @ 10 uM” value falls from 2.32% to -1.36%.

First: COc1cccc(OC)c1C(=O)O/N=C(\N)c1ccncc1
Second: CC(C)(C)Nc1c(-c2ccncc2)nc2ccc(Br)cn12
The “% Inhibition @ 10 uM” value of the first is lower: 1.96% for the first, 7.16% for the second.

Going from `C=CCNC(=O)NC12CC3CC(CC(C3)C1)C2` to `Cn1cc(NC(=O)NCC2CCCO2)c2ccccc2c1=O` (centres unmarked), the “% Inhibition @ 10 uM” value falls from 14.8% to 6.54%.

Compared with `Brc1ccc(OCCCCCCN2CCNCC2)cc1`, `COc1ccc(C(O)(C(C)C)C(CN2CCOCC2)c2ccc(Cl)cc2)cc1` (centres unmarked) is higher in “% Inhibition @ 10 uM” value: -15.4% for the first, 0.00706% for the second.

Going from `Cc1nc2nc(NC(=O)c3ccccc3F)nn2c(O)c1Cc1ccccc1` to `Cn1c(=O)c2c(nc3n2CC(c2ccc(Cl)cc2)=NN3Cc2ccccc2)n(C)c1=O`, the “% Inhibition @ 10 uM” value falls from 2.05% to -2.62%.

Going from `Cc1nn(-c2ccccc2C(C)C)c2c1C(=O)CC(C)(C)C2` to `O=c1c2ccccc2nc2n1S(=O)(=O)c1ccccc1-2`, the “% Inhibition @ 10 uM” value falls from 3.81% to -8.76%.

First: CC1CN(c2c(Cl)cccc2[N+](=O)[O-])CCN1 (centres unmarked)
Second: Cn1c(=O)c2c(nc(N3CCCC3)n2C)n(C)c1=O
The “% Inhibition @ 10 uM” value of the first is lower: -8.22% for the first, 0.51% for the second.

Going from `COc1ccc(C2Nc3ccc4ccccc4c3C3=C2C(=O)CC(C)C3)cc1` (centres unmarked) to `O=C(O)c1cccc(-n2cccc2/C=C2\NC(=O)N(Cc3ccc(F)cc3)C2=O)c1`, the “% Inhibition @ 10 uM” value falls from 5.64% to -1.36%.

First: CCCNc1nc2ccccn2c(=O)c1/C=C1\SC(=S)NC1=O
Second: CCSc1[nH]nc(N)c1S(=O)(=O)c1ccccc1
The “% Inhibition @ 10 uM” value of the first is lower: 1.52% for the first, 5.94% for the second.

Going from `N#C/C(=C/c1ccc(Cl)cc1)c1nc(-c2ccc(F)cc2)cs1` to `Cc1ccc2[nH]c(-c3cc[n+](C)cc3)cc2c1`, the “% Inhibition @ 10 uM” value rises from -3.03% to 0.658%.

First: O=[N+]([O-])c1ccc(C(O)CNC(=S)Nc2ccccc2)cc1 (centres unmarked)
Second: C=C(C)CNC(=S)Nc1scc(-c2ccsc2)c1C(=O)OCC
The “% Inhibition @ 10 uM” value of the first is lower: -6.68% for the first, 1.57% for the second.

In the case of `COc1cc(C2CC(C(F)(F)F)n3ncc(C(=O)O)c3N2)cc(OC)c1OC` (centres unmarked), the “% Inhibition @ 10 uM” value is reported as 0.231%.
